Results: PMC12040169 (PLOS Biology, 2025)
The other results are listed elsewhere or left out.

The molecules below were run on T1, C. trachomatis L2/434/Bu expressing GFP (CTL2-GFP). Conditions: total inclusion area; 28.5 h, 10 µM; inhibitor.
T1 construct: L2/434/Bu GFP intracellular growth in HeLa cells
Set-up: species or system HeLa; C. trachomatis total inclusion area by high-content imaging, normalised to DMSO
In short: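 High-content imaging followed the bulk GFP/resorufin measurement: fixed, Hoechst-stained cells were scored for GFP inclusions and host nuclei per well. Total inclusion area and count served as growth proxies, nuclei number as the viability proxy. MIC calculation matched the bulk assay.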

| SMILES | % of control remaining |
| --- | --- |
| CC(NC(=O)N1CCN(c2ccccc2)CC1)c1ccccc1 (centres unmarked) [CBK155207] | 83.9498 |
| O=C(NCCCn1ccnc1)c1ncoc1-c1ccccc1 [CBK283887] | 69.3907 |
| Cc1cc(NC(=O)c2ccco2)c2ccccc2n1 [CBK116258] | 60.9744 |
| COc1cc(/C=N/NC(=O)c2nonc2N)ccc1OC(=O)c1cc(F)c(F)cc1Cl [CBK262380] | 114.049 |
| CCOC(=O)c1cnc(Nc2nc3ccccc3o2)nc1CSc1ncccn1 [CBK268885] | 113.413 |
| N#Cc1ccccc1OCCO [CBK001443] | 91.7973 |
| C=CCS(=O)(=O)N1CCC(c2nc(C)n3c(C)csc23)CC1 [CBK285251] | 97.384 |
| CCOc1cc(C#N)cc(I)c1OCC(=O)O [CBK266326] | 133.568 |
| O=C(c1cccs1)N1C[C@@H]2CCCCN(C3CCOCC3)[C@@H]2C1 [CBK285503] | 93.0069 |
| Cn1c(COc2ccccc2)nnc1SCC(=O)c1cccc([N+](=O)[O-])c1 [CBK268397] | 88.3922 |
| CC(C)(CN)CN(Cc1ccccc1C(F)(F)F)C(=O)Nc1c(F)cccc1F [CBK026822C] | 76.4004 |
| CC(=O)Nc1cccc(-c2cn3ccnc3c(N3CCN(C)CC3)n2)c1 [CBK037930] | 104.916 |
| CC(C)(C)NCC(O)CO/N=C(/c1ccncc1)c1ccc(Br)cc1 (centres unmarked) [CBK023914G] | 87.1622 |
| Cc1ccn(CCNCc2cc(-c3ccc(Cl)cc3)c[nH]c2=O)n1 [CBK284727] | 77.3668 |
| CN1CCOCC(CNC(=O)c2ccc(-c3ccccc3CO)cc2)C1 (centres unmarked) [CBK307601] | 74.2377 |
| CCOc1cc(/C=N/NC(=O)c2cncc(Br)c2)c(Br)c(Br)c1O [CBK261386] | 93.2814 |
| Cc1ccccc1OC(C)C(=O)Nc1ccccc1C(=O)N1CCOCC1 (centres unmarked) [CBK269753] | 90.2542 |
| O=C(CSc1nnc(COc2ccc(Br)cc2)o1)OC1CCCCC1 [CBK027482] | 94.6893 |
| CC(C)(C)c1ccc(N(C2CCNCC2)S(=O)(=O)c2cccc(C(F)(F)F)c2)cc1 [CBK165056T] | 29.5617 |
| C[C@H]1CN2C[C@H](O)CC2CN1Cc1cccn1Cc1ccccc1F (some centres unmarked) [CBK285165] | 84.5218 |
| Cc1ccc(S(=O)(=O)NCCc2cn3ccc(C)cc3n2)cc1 [CBK287630] | 68.7683 |
| Oc1ccc(-n2ncc(-c3ccc(F)cc3F)n2)cc1 [CBK112736] | 98.5464 |
| Cc1cc(NC(=O)NC2CCSc3ccccc32)no1 (centres unmarked) [CBK259296] | 8.826 |
| CC(C)Nc1nccnc1SCCN(C)C [CBK105290] | 98.7417 |
| CC(=O)Nc1ccc(S(=O)(=O)/N=C(\Nc2nc(C)cc(C)n2)Nc2ccccc2F)cc1 [CBK266134] | 92.758 |
| Cc1nc2c(c(=O)[nH]1)CCN(Cc1[nH]c3ccccc3c1C)C2 [CBK283995] | 96.2352 |
| Cn1ncc(N2CCN(C(=O)CCCOc3ccccc3)CC2)cc1=O [CBK306937] | 59.5146 |

| SMILES | % of control remaining |
| --- | --- |
| CCn1cc(-c2cncn2CC(C)n2nc(C)cc2C)cn1 (centres unmarked) [CBK281775] | 111.543 |
| CC(C)(CO)C(O)C(=O)NC1CCCC(C(=O)O)C1 (centres unmarked) [CBK286609] | 79.2274 |
| Cc1cc(NC(=O)c2cc(C)oc2C)no1 [CBK058081] | 49.9255 |
| N#CCCCN1CCC(Oc2cncc(OCc3ccc(Cl)c(Cl)c3)n2)C1 (centres unmarked) [CBK084436] | 18.3894 |
| O=C(Cc1ccccc1)N1CCN(c2ncccn2)CC1 [CBK144518] | 86.7329 |
| S=C(NCCc1ccccc1)Nc1ccc2c(c1)OCCO2 [CBK267048] | 96.4974 |
| O=C(COc1ccc(Br)cc1C(=O)O)NCCc1ccccc1 [CBK286796] | 90.0244 |
| NCC(O)CNC(=O)c1cc(-c2ccc(Cl)cc2)[nH]n1 (centres unmarked) [CBK160977] | 95.611 |
| Cc1ccccc1NC(=O)Nc1cccc(F)c1 [CBK105831] | 89.3215 |
| CSc1ncc(Cl)c(C(=O)Nc2ccc(S(=O)(=O)N3CCOCC3)cc2)n1 [CBK268775] | 77.7619 |
| Cc1cc(NS(=O)(=O)c2ccc(Cl)c([N+](=O)[O-])c2)n(C)n1 [CBK067259] | 106.269 |
| Cc1ccc(-c2cc(=O)c3cc(OCC(=O)Nc4sc5c(c4C#N)CCCC5)ccc3o2)cc1 [CBK269062] | 109.497 |
| Cc1noc(NS(=O)(=O)c2ccc(NC(=O)CCN3C(=O)c4ccccc4C3=O)cc2)c1C [CBK264091] | 28.9465 |
| COCCNC(=O)c1cnn2c(C)c(Cc3cccc(C#N)c3)c(C)nc12 [CBK162096] | 88.9332 |
| CN(CC(=O)Nc1cnc(-c2ccc(F)cc2)c(-c2ccco2)n1)S(=O)(=O)c1ccccc1 [CBK037214] | 143.212 |
| CCCNc1nc(-c2ccc(SC)cc2)cn2ccnc12 [CBK066619] | 105.378 |
| CCOC(=O)c1ncoc1-c1ccc(Cl)cc1Cl [CBK020578] | 15.2996 |
| Cc1cc(C)n(CC(C)CNC(=O)NCCN2CCCCCC2=O)n1 (centres unmarked) [CBK305389] | 93.703 |
| C=CCNC(=O)Cn1cccc2cc(-c3ccc(OC)cc3)nc1-2 [CBK285348] | 111.95 |
| COC(=O)c1c(NC(=O)CSc2nc[nH]n2)sc2c1CCCC2 [CBK267222] | 108.765 |
| Cc1csc(NC(=O)CN2CCOC(c3ccc(F)cc3)C2)n1 (centres unmarked) [CBK304703] | 84.8255 |
| CCOC(=O)CC1C(=O)NCCN1Cc1ccoc1 (centres unmarked) [CBK270066] | 77.1739 |
| Cc1nc2ccc(NC(=O)CCn3nc(C)c(Cl)c3C)cc2s1 [CBK281634] | 96.3016 |
| CC(=O)Nc1ccc(S(=O)(=O)N2CCN(c3ccc([N+](=O)[O-])cc3C(F)(F)F)CC2)cc1 [CBK264944] | 90.6554 |
| CC(C)(CC(=O)O)CC(=O)Nc1ccc(N2CCCC2=O)cc1 [CBK299787] | 87.7596 |
| FC(F)(F)c1ccnc(OCc2cccnc2)c1 [CBK115784] | 55.6882 |
